The source of these data is ChEMBL document CHEMBL4888484, “Replenishing the malaria drug discovery pipeline: Screening and hit evaluation of the MMV Hit Generation Library 1 (HGL1) against asexual blood stage Plasmodium falciparum ,using a nano luciferase reporter read-out” (2022).

As a reminder, the % Inhibition is the relative decrease from the control value, in per cent.

Molecules are shown by their SMILES. The whole screen tested about 150,000 compounds, of which about 540 (0.36%) showed an effect of 50% or more. The list shows a part of the results.

In the test the test system is Plasmodium falciparum. Briefly: Primary screen in NF54 nanoGlo assay, in single point, at 2uM, 72h; a lower Z score goes with more inhibition. The class given is functional, Erythrocyte. The note with it: timepoint 72 hour.
On to `NS(=O)(=O)c1cnn(-c2ccc(NCc3ccccc3)cn2)c1`, for which the “% Inhibition” value is given as -10% and the Z score was determined as 1.39.
As for `O=C(Nc1ccc(F)cc1F)[C@H]1CCCN(S(=O)(=O)Cc2ccc(Cl)cc2)C1`, the “% Inhibition” value is -3% and the Z score is given as 0.58.
`Cc1cccc(N(C)C(=O)CCn2nnc3ccccc3c2=O)c1C`: the “% Inhibition” value is listed as -13% and the Z score was 1.51.
`CCc1cc(N(CCO)C2CCCC2)n2ncnc2n1`: the “% Inhibition” value is -6% and the Z score is listed as 0.85.
For the compound `COc1ccc(-c2cn3ccc4cc(OC)c(OC)cc4c3c2-c2ccc(OC)c(OC)c2)cc1`, the “% Inhibition” value is 2% and the Z score is -0.28.
For `Cc1ccccc1C(=O)N1[C@H](C(=O)NCc2cccnc2)COC12CCN(C(=O)c1ccccc1Cl)CC2`, the “% Inhibition” value is -10% and the Z score is on record as 0.94.
The matching figures for `Cc1cc(NC(=O)[C@@H]2CC=CCC2)no1`: -8% and 0.71.
Consider `Cn1cc(C(=O)NCCCN2CCCC2=O)c2cccnc21`, for which the “% Inhibition” value stood at 0% and the Z score is -0.04.
The matching figures for `CCOC(=O)c1nn(Cc2ccc(OC)cc2)c2c1CN(C(=O)[C@@H]1CCCO1)CC2`: -8% and 1.05.
For `COCCOC(=O)N1CCC(c2nnc(CN3CCOCC3)n2C)CC1`, the “% Inhibition” value was found to be 7% and the Z score is listed as -1.01.
Consider `CN(Cc1ccsc1)C(=O)CC[C@]1(Cc2ccc(F)cc2)CCC(=O)N1`, for which the “% Inhibition” value was -8% and the Z score is recorded as 1.41.
The matching figures for `CCc1nsc(N[C@@H](C)c2ccc(NC(=O)NC3CC3)cc2)n1`: -6% and 0.65.
Regarding `CCc1ccccc1NC(=O)N1CCN(Cc2nc3ccc(Cl)cc3o2)CC1`, the “% Inhibition” value is given as -30% and the Z score was determined as 2.64.
On the same counts, the results for `Nc1nnc(CCNC(=O)c2cscc2C(F)(F)F)o1` are -7% and 0.67.
With `CCC(C)(C)OC1CN(C(=O)c2cc3cccc(F)c3o2)C1`, the “% Inhibition” value was found to be 29% and the Z score was -3.93.
On the same counts, the results for `O=C(Cc1csc(NC(=O)c2ccco2)n1)N[C@H]1CCC[C@H]1Oc1cc(F)cc(F)c1` are -17% and 2.15.
Regarding `COc1ccc(C(=O)N2CC3(C[C@@H](c4noc(-c5ccccn5)n4)N(C)C3)C2)cn1`, the “% Inhibition” value is listed as -10% and the Z score is given as 1.61.
Turning to `CCCOc1ccc(CN2C[C@@H](CO)[C@H](c3ccncc3)C2)cc1`, the “% Inhibition” value is on record as -9% and the Z score turned out to be 1.48.
On the same counts, the results for `CCCN1CCN(CCCNS(=O)(=O)c2ccc3c(c2)C(C)(C)C(=O)N3C)CC1` are -6% and 0.79.
With `CC(C)CN1C[C@H](OCc2ccccc2F)CN(C(=O)C(C)(C)O)CC1=O`, the “% Inhibition” value was -17% and the Z score was found to be 1.93.
On to `CN1CC(=O)N2C[C@@H](n3ccnc3-c3ccc(-c4cc[nH]n4)s3)C[C@H]2C1=O`, for which the “% Inhibition” value was -11% and the Z score stood at 1.27.
Consider `O=C1C[C@H](c2nc(CCCc3ccccc3)no2)CN1CC1CC1`, for which the “% Inhibition” value is reported as -12% and the Z score amounted to 1.59.
The matching figures for `Cn1c(C(=O)Nc2ccccc2C(N)=O)ccc1-c1ccccc1Br`: -3% and 0.26.
In the case of `CCOc1ccc(-c2cn(C3CN(C(=O)c4cc(C)no4)C3)nn2)cc1`, the “% Inhibition” value was -9% and the Z score amounted to 1.33.
`O=C(Cn1ccc2occc2c1=O)N[C@H](c1ccc(F)cc1)C1CCCC1`: the “% Inhibition” value was -2% and the Z score turned out to be 0.3.
For the compound `CC(C)n1nnc2cc(S(=O)(=O)N(C)CC(=O)NCCCN3CCCC[C@@H]3C)ccc21`, the “% Inhibition” value is reported as -14% and the Z score is 2.26.
The matching figures for `C[C@H]1CN(C(=O)c2ccc(CN3CCc4ccccc4C3)cc2)CCCO1`: 2% and -0.3.
On the same counts, the results for `Cc1cc(C(=O)N[C@H](CO)C(C)C)c(F)cc1F` are -17% and 1.53.
The matching figures for `CCn1c(C)c(CN2CCC(C(=O)NC3CCCC3)CC2)c2ccccc21`: -10% and 1.36.
Regarding `Cc1nn2c(-c3ccc(-c4ccccc4)cc3)ccnc2c1Cl`, the “% Inhibition” value was -12% and the Z score is 1.64.
Take `COc1cccc(C(=O)N2[C@H](C(=O)NC3CCN(C)CC3)COC23CCC(C)CC3)c1` (some centres undefined): the “% Inhibition” value is -6% and the Z score turned out to be 0.81.
On the same counts, the results for `CCn1nc(C)c(CCn2ccnc2-c2ccc(CO)o2)c1C` are -6% and 1.06.
For `CN(C)c1nc(C2CC(N)C2)cc(N(C)Cc2ccc3c(c2)OCO3)n1` (centres undefined), the “% Inhibition” value was 0% and the Z score turned out to be 0.03.
With `C[C@@]1(C(=O)NCc2nnnn2CC2CC2)CCCNC1=O`, the “% Inhibition” value worked out at 31% and the Z score is -3.53.
As to `CC(C)CCOc1ccc(CN2CC(C(=O)O)C2)cc1`, the “% Inhibition” value is given as -17% and the Z score was 1.97.
In the case of `C[C@H]1c2cc(Cl)cc(Cl)c2CCN1c1nccc(-n2cccn2)n1`, the “% Inhibition” value is on record as -19% and the Z score worked out at 2.45.
In the case of `CC[C@H]1C(=O)Nc2sc(C)c(C)c2C(=O)N1C`, the “% Inhibition” value is -3% and the Z score was 0.41.
For `COc1ccc(NS(=O)(=O)N2CCc3ccccc3C2)cn1`, the “% Inhibition” value is given as -2% and the Z score is recorded as 0.22.
Regarding `COc1cc(F)c(CN2CCC3(CC2)CNC(=O)C3)cc1OC`, the “% Inhibition” value is recorded as -34% and the Z score turned out to be 7.24.
Regarding `CCc1ncsc1NS(=O)(=O)c1cnc(-c2ccccc2)nc1`, the “% Inhibition” value is on record as -11% and the Z score was 1.08.
The matching figures for `CCS(=O)(=O)N1CC(=O)N(c2ccc(OC)cc2OC)[C@](C)(C(=O)NC2CCCC2)C1`: -7% and 0.91.
On the same counts, the results for `Cc1ccc(CN2C[C@@H](CO)[C@H](NC(=O)C3CCC3)C2)o1` are -6% and 0.86.
